The RNAGym collection of RNA variant scans (doi:10.7554/elife.90254)
Read counts are not given, so values of variants with three or more changes are uncertain.

B1: LINE1-mini (parent)
chain: GGCAGAGCUCAACACAGCGUGGCAAAGUGGCUGUGGCUAGACUGCC

Variants of: B1
Test: self-cleavage, relative activity (ratio to wild type); higher = more cleavage; in vitro, sequencing; the parent is a self-cleaving ribozyme

Variant | self-cleavage
G7U A24G A25G A26C C46U | 0.03
A4C C18G C42A | 0.98
A4C C15U U28C U34G | 0
G21U G36U C37A | 0
G1U U9A A11G A39C G40U C45U | 0
G1A A16G G19A C37G | 0.04
G22C U34A A41C | 0.04
A4C C13A G29U U32C G33A G35U | 0.26
C10A G21A C42A | 0.13
C15U A16G G35A C37U C42U U43A | 0.14
G1A G2C G22A U38G A39U G40C C45G | 0.02
A6U C13A A26C G30C | 0.34
A12G C23A U28A | 0.01
C8U C10G G17U A25G | 0.03
A16U U34A U43A | 0.01
G5C C8G C15G U28A G29U | 0.12
A6C A16U C37U A41U C42A | 0.02
G2U C3A G36U U43C | 0.03
C3A A4C G19C A24U C45G | 0.07
A14U A16U C46U | 0.1
G7A G17U G19U G27C | 0.02
A11G A12G U32A G44U | 0.04
C10A G19A C23U G36A | 0.01
G19A U28G G29A G36U G44C | 0.05

Variant | self-cleavage
G27A U28C U43G | 0.03
G7C C18A U38C | 0.02
G7A C10G C15A G19U U20G | 0
C13U A25U G30A | 0.03
G5U A26U G29U A41G | 0.04
C23G A26G G29A U34G | 1
C13U A14G G22U C31A | 0.02
A12U C15A G17C G27C | 0.04
G2C U20G U32G A39U | 0
G2C A14C G17U G21A A24U A26C G44C | 0.11
C15G U38C C42U | 0.04
G1U G27C G40U | 0.03
G1A A4C G22U | 0.06
G1A C10A G17U | 0.04
U20A U38A G44C | 0.12
A4C G5U G7U A25G | 0.03
A24C A25C G33U A39G | 0.05
A6C G7A C8G U20A A39C | 0.03
G2C G35C C46U | 0.18
G5U G17A C31A | 0.03
C3G C15G C45A C46A | 0.02
A6U G36C G40U | 0.01
U9C C18U C45A | 0.03
G2A C8A A11C A12U A41C | 0.01

Variant | self-cleavage
G22C C23U A26C | 0.27
G1U C18A G33A A39U | 0
C3G A14G C31A G35U C42G | 0.02
G1U C10A G21U A41G | 0.03
C8U G17C U28A | 0.31
A4C A6U G30A | 0.01
G5U G21U U34G G36U | 0.08
A4U C23A C37U | 0.04
C13A G21U U43C | 0
C10A G19U G33C G40U C46U | 0.03
G22C C23U G33A G40C | 0.05
C13U A16U U32G A39G U43A | 0.05
G5U A25C U32A G33U | 0
C3U G7C G29U G36U C42U C46A | 0.02
U20C A24U A25C G40C | 0.02
A14G C23U U28C G29A U32A U34C G36A U38G G40A | 0.68
C23U U38A G40U | 0.12
C10G A24C G27A G40A | 0.03
C13U G30U C31U A41U G44C | 0.01
U20C G21C G30C G35C | 0.08
A24C A26U C37A A39U | 0.36
G7A A11G C42A | 0.01
C15G A25G U32G C46U | 0
G7A C31U G35U | 0.03

Variant | self-cleavage
C3U G7C A12G G19U | 0.01
G1A C18G U32A U34C | 0.06
C3U G7A A11G G44A | 0
A4U C10G G17U G27U G40U | 0.03
G5U C10U G29U C46A | 0.04
U9A U34A G36C | 0.09
G5A G7U G29C | 0.05
C15A U32C G35C | 0.02
A6C C15A G44U | 0.05
U9A C13G G17U C31G G36A | 0.13
G7A C23G G33U | 0.24
A6U A12U A14G C46G | 0.01
C10A G35A C37G U38A | 0.01
C10G C13A C15A G19A G36C A41U | 0.01
A24U A26G U34C | 0.2
C3U G17U C18U | 0.09
G2A G22A G27A | 0.31
C8A G22A U32A G36U C37U | 0.05
G5C A16U G40U | 0.34
G7C C8G G19U G33C | 0.06
A6G C10A G21U A26G G44U | 0.01
G5U U9G A16C | 0.03
G2C U9A C13A | 0.61
A6U G29U G33A U38G | 0.01

Variant | self-cleavage
A12C G21U C45U | 0.08
C3G A6G G35U | 0.07
C3G A4G G5A G33A | 0.08
C31U G40C C46U | 0.02
G27U U28A C31G G35A | 0.04
C10U G33U C45A | 0.06
U9G G17U G36A | 0.03
G2U A14G G29U C45A | 0.04
C3G A12G U20G C42G C46G | 0.02
G22U A25U U32C C46A | 0.05
C10A C13U G35A G36U | 0.01
U9A C37A C45U | 0.16
G7U G33A U34G G40C | 0.13
C8U A11G G17U G35U | 0.03
G7U A12U G19U U38A A41U | 0.05
G7C U34G G36C C37U | 0.12
G21U G30U G40U | 0.11
A11U U38G A41C | 0.01
G2C U20A G21A | 0.06
G1C G22U U32G C45U | 0.02
G1C C3G G7U C10A G19U C31G | 0.03
A16U G21A G27C G29A | 0.9
G7U A24G C31A | 0.02
U28G G29A G30A A41G | 0.03

Variant | self-cleavage
G2A G21U C23A A25U | 0.26
G1A U32A U43A | 0.01
C13A U34C C45A | 0.07
U9C A16U G17A C18U | 0
A4C A16C G17A U38C | 0.04
A11G A14U G36C | 0.05
C10G C23U G33U A41G | 0.01
G1U C8A G22U | 0.08
G22A A39U C45A | 0.48
U20C C37U U43A | 0.05
C3G C13G A16U G17A C23U U38C | 0.17
C10U G22A U28A | 0.16
C15U G21C C23A A25C | 2.65
C15A A16U G40A | 0.28
A25G A26G C42A | 0.03
G1A A11U C37U C45A | 0.03
G5A C8G G36U | 0.04
G21A A26C U28G G33C | 0.02
A12U A14U U32G U43A G44A | 0
A11U G22C G36A | 0.06
G17U A39G C42U C46G | 0.02
A16C C31U U43G | 0.07
G1A G7U G22C A26U | 0.35
G5U A6C A12C G19U C23G G27A | 0.02

Variant | self-cleavage
G17C A26G G35C A39C | 0.03
C8U C13U G22C G30A A39G | 0.02
U9G A11U A12G A16G G27C C37U | 0.04
G2U C15A U28A | 0.05
A4C G17A C37A G40U | 0.05
A6G A11G G19A C46A | 0.01
A14C G36U A39U A41U | 0.06
A11C G17A G21U G22U U43C | 0
C8G U9A G27A U32C | 0.07
C3G C13U G17C G36C | 0.26
G1U G7U C18A G22C A25U C31U | 0.01
G2U C10U A16G | 0.02
G1C G7C G29U C42G | 0.01
G5U A11U G22U | 0.03
G2U A12U G21C G44U C45A | 0.03
G19U U20C G29A G33C G35C | 0.02
C3U G22U G33U U38G | 0.03
C3A C23U U38G | 0.01
G19U G21A C23U U38C | 0.57
C13A C18U A24U C42A | 0.1
G2A G7U C13U G36U C37U A41U C45U | 0.06
A4U U9C A14C C18A U20C G22A G35A C37U | 0.01
C10U G21U A24U A26C C46G | 0.3
